Experimental data published in the supplement of paper PMC4967469.

What was measured:
AICAR = compound: NC(=O)c1ncn([C@@H]2O[C@H](CO)[C@@H](O)[C@H]2O)c1N [AICAR]; assay: Viability of human cancer cell lines after 72 h of drug (GDSC screen); conditions: top dose 2000 µM; top dose inferred
Experimental: (§1)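 Human cancer cell lines in 384-well plates, medium with 10% serum, drug for 72 h over a 256-fold dose range (nine 2-fold or five 4-fold steps up to the top dose). Adherent lines were fixed and stained with the nucleic acid dye Syto60, suspension lines read with resazurin; signal relative to control wells, capped at 0 and 100%. One two-parameter sigmoid per drug and line, fitted in a mixed model over all curves with the slope shared within a line.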

AKT inhibitor VIII = compound: O=c1[nH]c2ccccc2n1C1CCN(Cc2ccc(-c3[nH]c4cc5ncnc5cc4nc3-c3ccccc3)cc2)CC1 [AKT inhibitor VIII]; assay: as above; conditions: top dose inferred
Experimental: as §1

[1] = top dose 2.56 µM, screen: GDSC drug entry 171
[2] = top dose 10.24 µM, screen: GDSC drug entry 228

Row | Cell Line | AUC (AICAR) | IC50 (AICAR) | AUC (AKT inhibitor VIII; [1]) | IC50 (AKT inhibitor VIII; [1]) | AUC (AKT inhibitor VIII; [2]) | IC50 (AKT inhibitor VIII; [2])
1 | H3255 (lung adenocarcinoma, adherent) | 0.818 | 1420 µM | 0.973 | > 2.56 µM | 0.881 | > 10.2 µM
2 | HAL-01 (lymphoblastic leukaemia, suspension) | 0.66 | 328 µM | 0.987 | > 2.56 µM | 0.546 | 0.841 µM
3 | HARA (lung squamous cell carcinoma, adherent) | 0.691 | 475 µM | 0.931 | > 2.56 µM | 0.722 | 3.06 µM
4 | HCC38 (breast, adherent) | 0.96 | > 2000 µM | 0.846 | 2.09 µM | 0.88 | > 10.2 µM
5 | HCC70 (breast, adherent) | 0.752 | 652 µM | 0.741 | 0.77 µM | 0.624 | 1.4 µM
6 | HCC202 (breast, adherent) | 0.722 | 696 µM | – | – | 0.744 | 4.36 µM
7 | HCC1143 (breast, adherent) | 0.85 | > 2000 µM | 0.929 | > 2.56 µM | 0.862 | > 10.2 µM
8 | HCC1187 (breast, suspension) | 0.835 | 1220 µM | 0.989 | > 2.56 µM | 0.803 | 4.8 µM
9 | HCC1395 (breast, adherent) | 0.956 | > 2000 µM | 0.972 | > 2.56 µM | 0.889 | > 10.2 µM
10 | HCC1419 (breast, adherent) | 0.852 | > 2000 µM | 0.848 | > 2.56 µM | 0.727 | 3.77 µM
11 | HCC1428 (breast, adherent) | 0.766 | 802 µM | 0.964 | > 2.56 µM | 0.886 | > 10.2 µM
12 | HCC1500 (breast, adherent) | 0.565 | 190 µM | 0.988 | > 2.56 µM | 0.897 | > 10.2 µM
13 | HCC1569 (breast, adherent) | 0.787 | 1200 µM | 0.842 | > 2.56 µM | 0.613 | 1.45 µM
14 | HCC1937 (breast, adherent) | 0.872 | > 2000 µM | 0.908 | > 2.56 µM | 0.811 | 6.48 µM
15 | HCC1954 (breast, adherent) | 0.84 | 1710 µM | 0.924 | > 2.56 µM | 0.733 | 3.36 µM
16 | HCC2157 (breast, suspension) | 0.603 | 244 µM | 0.9 | > 2.56 µM | 0.891 | > 10.2 µM

Row | Cell Line | AUC (AICAR) | IC50 (AICAR) | AUC (AKT inhibitor VIII; [1]) | IC50 (AKT inhibitor VIII; [1]) | AUC (AKT inhibitor VIII; [2]) | IC50 (AKT inhibitor VIII; [2])
17 | HCC2218 (breast, suspension) | 0.936 | > 2000 µM | 0.91 | > 2.56 µM | 0.603 | 1.32 µM
18 | HCC2998 (large intestine, adherent) | 0.873 | 1820 µM | 0.982 | > 2.56 µM | 0.935 | > 10.2 µM
19 | HCC-15 (lung squamous cell carcinoma, adherent) | 0.871 | > 2000 µM | 0.946 | > 2.56 µM | 0.894 | > 10.2 µM
20 | HCC-44 (lung adenocarcinoma, adherent) | 0.869 | 1770 µM | 0.904 | > 2.56 µM | 0.832 | 6.35 µM
21 | HCC-56 (large intestine, adherent) | 0.781 | 850 µM | 0.945 | > 2.56 µM | 0.698 | 2.35 µM
22 | HCC-78 (lung adenocarcinoma, adherent) | 0.827 | 1520 µM | 0.971 | > 2.56 µM | 0.832 | 8.15 µM
23 | HCC-827 (lung adenocarcinoma, adherent) | 0.854 | 1960 µM | 0.94 | > 2.56 µM | 0.937 | > 10.2 µM
24 | HCT-15 (large intestine, adherent) | 0.882 | > 2000 µM | 0.863 | 2.44 µM | 0.929 | > 10.2 µM
25 | HCT-116 (large intestine, adherent) | 0.881 | 1910 µM | 0.889 | > 2.56 µM | 0.907 | > 10.2 µM
26 | HD-MY-Z (Hodgkin lymphoma, adherent) | 0.867 | 1820 µM | 0.986 | > 2.56 µM | 0.764 | 3.73 µM
27 | HDLM-2 (Hodgkin lymphoma, suspension) | 0.732 | 564 µM | 0.968 | > 2.56 µM | 0.811 | 5.33 µM
28 | HDQ-P1 (breast, adherent) | 0.815 | 1370 µM | 0.956 | > 2.56 µM | 0.967 | > 10.2 µM
29 | HEC-1 (endometrium, adherent) | 0.94 | > 2000 µM | 0.931 | > 2.56 µM | 0.971 | > 10.2 µM
30 | HGC-27 (stomach, adherent) | 0.848 | 1160 µM | 0.512 | 0.171 µM | 0.583 | 1.04 µM
31 | HL-60 (acute myeloid leukaemia, suspension) | 0.629 | 273 µM | 0.98 | > 2.56 µM | 0.861 | 7.26 µM
32 | HMV-II (melanoma, adherent) | 0.968 | > 2000 µM | 0.978 | > 2.56 µM | 0.879 | > 10.2 µM

IC50 is the fitted dose that halves viability relative to control wells, and lower means more sensitive; fits outside the tested doses are given as limits. AUC sums up the same curve from the lowest dose to the 256-fold higher top dose; it is 1 without any effect and falls as sensitivity rises. Where the top dose is marked as inferred, it comes from the curve model; the source does not state it. For some of these results: Where an entry number is given, a second screen of the drug exists; the two often differ.
